Data from paper PMC12528901.
No constants are given. Whether binding was seen depends on the method and setting. In cells and extracts the contact can be indirect. Some entries that bind do so weakly or less than the wild type. For some assays here: Where a sequence is shown, tags or fusion partners need not be part of it.

Chains of the proteins cited; added tags and fusions are not shown.
UniProt P59268: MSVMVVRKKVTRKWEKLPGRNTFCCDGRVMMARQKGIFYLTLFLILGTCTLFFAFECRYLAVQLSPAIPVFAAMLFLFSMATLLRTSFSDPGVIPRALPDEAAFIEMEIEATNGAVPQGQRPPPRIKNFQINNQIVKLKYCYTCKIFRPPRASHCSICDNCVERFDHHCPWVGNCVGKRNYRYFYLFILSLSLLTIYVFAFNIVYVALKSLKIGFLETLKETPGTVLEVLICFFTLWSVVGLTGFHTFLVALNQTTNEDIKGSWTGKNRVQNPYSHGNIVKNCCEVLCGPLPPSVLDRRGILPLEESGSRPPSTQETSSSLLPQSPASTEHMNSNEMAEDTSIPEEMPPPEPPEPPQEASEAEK
UniProt Q7Z5G4: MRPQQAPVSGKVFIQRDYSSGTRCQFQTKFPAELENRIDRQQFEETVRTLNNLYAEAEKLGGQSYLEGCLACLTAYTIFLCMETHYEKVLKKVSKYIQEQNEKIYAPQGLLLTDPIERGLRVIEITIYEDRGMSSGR

Tests used:
Assay in all cases: co-IP; HA-tagged mouse Zdhhc proteins transfected into 293T ZDHHC5 KO and control cells; lysis in 50 mM Tris-HCl pH 7.4, 150 mM NaCl, 2 mM EDTA, 1% DDM; anti-HA magnetic beads overnight at 4 °C; washes in TBS with 0.5% DDM; blots for endogenous GOLGA7 or ZDHHC9
[1] = biological target: T1, Zdhhc4^RNYR (mouse Zdhhc4 with the RNYR motif and flanking residues installed) (mouse) (UniProt Q9D6H5)
T1 sequence: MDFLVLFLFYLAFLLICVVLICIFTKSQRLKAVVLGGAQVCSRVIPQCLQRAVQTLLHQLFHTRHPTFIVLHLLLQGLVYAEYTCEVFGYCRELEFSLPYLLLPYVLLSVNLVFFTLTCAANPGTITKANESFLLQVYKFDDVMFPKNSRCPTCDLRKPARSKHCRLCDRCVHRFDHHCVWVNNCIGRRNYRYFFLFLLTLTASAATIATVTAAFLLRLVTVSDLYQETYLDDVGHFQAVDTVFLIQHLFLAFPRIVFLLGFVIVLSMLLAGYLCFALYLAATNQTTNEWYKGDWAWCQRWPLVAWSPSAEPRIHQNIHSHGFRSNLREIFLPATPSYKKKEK

[2] = biological target: T2, HA-tagged mouse Zdhhc13 (mouse) (UniProt Q9CWU2)
T2 sequence: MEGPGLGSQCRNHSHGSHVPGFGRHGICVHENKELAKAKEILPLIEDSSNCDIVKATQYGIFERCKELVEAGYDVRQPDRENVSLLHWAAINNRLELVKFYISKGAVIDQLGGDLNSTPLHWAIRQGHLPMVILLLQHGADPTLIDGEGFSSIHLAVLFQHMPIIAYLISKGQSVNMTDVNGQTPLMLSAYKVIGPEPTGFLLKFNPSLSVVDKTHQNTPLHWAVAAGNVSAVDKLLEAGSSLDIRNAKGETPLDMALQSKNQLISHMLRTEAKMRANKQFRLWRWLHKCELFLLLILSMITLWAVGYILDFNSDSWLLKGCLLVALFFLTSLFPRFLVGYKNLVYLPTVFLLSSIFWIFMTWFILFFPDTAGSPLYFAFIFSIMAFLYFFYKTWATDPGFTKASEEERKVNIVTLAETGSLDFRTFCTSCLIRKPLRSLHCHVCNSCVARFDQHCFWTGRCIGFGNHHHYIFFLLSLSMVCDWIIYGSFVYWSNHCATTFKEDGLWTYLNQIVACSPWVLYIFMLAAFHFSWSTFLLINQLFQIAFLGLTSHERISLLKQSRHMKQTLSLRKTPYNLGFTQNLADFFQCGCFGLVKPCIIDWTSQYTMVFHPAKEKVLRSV

[3] = biological target: T3, HA-tagged mouse Zdhhc20 (mouse) (UniProt Q5Y5T1)
T3 sequence: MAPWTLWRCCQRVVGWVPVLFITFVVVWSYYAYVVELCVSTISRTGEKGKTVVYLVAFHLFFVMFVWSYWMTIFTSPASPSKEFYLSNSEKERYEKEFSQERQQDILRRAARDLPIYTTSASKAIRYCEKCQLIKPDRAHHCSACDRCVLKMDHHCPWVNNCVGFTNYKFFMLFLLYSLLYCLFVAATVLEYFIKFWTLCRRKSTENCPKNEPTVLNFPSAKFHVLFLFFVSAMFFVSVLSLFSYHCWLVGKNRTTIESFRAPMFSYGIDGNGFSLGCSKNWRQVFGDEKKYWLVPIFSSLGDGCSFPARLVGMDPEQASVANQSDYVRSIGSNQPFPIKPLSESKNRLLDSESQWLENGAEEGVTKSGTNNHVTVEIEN

[4] = biological target: HA-tagged mouse Zdhhc9 (mouse) (UniProt P59268)
[5] = biological target: T4, HA-tagged mouse Zdhhc19 (mouse) (UniProt Q810M5)
T4 sequence: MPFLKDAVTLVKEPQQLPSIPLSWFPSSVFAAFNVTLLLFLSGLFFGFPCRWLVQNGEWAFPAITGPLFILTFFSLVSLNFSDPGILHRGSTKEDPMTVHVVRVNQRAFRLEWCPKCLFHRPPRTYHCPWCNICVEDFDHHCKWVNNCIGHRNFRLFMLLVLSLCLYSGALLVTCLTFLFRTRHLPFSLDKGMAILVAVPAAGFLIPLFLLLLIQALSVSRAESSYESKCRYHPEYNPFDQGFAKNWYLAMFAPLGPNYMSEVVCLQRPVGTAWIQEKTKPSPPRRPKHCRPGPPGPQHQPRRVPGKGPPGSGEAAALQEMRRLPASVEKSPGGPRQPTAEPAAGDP

endogenous human golgin A7 (GOLGA7) (from UniProt Q7Z5G4 1-137)
binding [1]: no binding | binding [2]: no binding | binding [3]: no binding | binding [4]: binds | binding [5]: no binding
